Source: PubChem BioAssay (NCATS)
This is one part of the list. Further columns of the screen follow, without active or inactive calls. Compounds called inactive in the main read-out are mostly missing here. Words in brackets tell the shape of the fitted curve; partial curves, single points and poor fits give uncertain potencies.

Assay: Cell-based coincidence reporter assay to measure PMP22 gene transcription in S16 Pmp22-F2sN cells - Confirmatory screen (AID 1508646)
Settings: S16 Schwann cells Pmp22-F2sN, dual luciferase, 24 h; measured here: NLuc reporter channel
Summary of the method: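 S16 rat Schwann cells carrying FLuc-2A-NLuc reporter in Pmp22 3' UTR (500-1,000 cells/well) treated with pinned compounds for 24 h at 37C. Dual-luciferase reads: FLuc luminescence first, then NLuc after Stop&Glo.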
Tags describe the fitted curve by direction and shape.

Compound	AC50
CSc1nc2sc3c(c2c(=O)n1-c1ccc(C)cc1)CCCC3	21.7 µM [falling, partial curve]
Cc1ccc(NC(=O)Cn2c(=O)n(Cc3ccc4c(c3)OCO4)c(=O)c3ccc(C(=O)NC4CCCCC4)cc32)c(C)c1	27.3 µM [falling, partial curve, poor fit]
Cc1ccc(NS(=O)(=O)c2ccc3[nH]c4c(c3c2)CCCC4)cc1N(C)C	21.7 µM [falling, partial curve]
CCC(C)NC(=O)CSc1c2c(nc3cc(Cl)ccc13)CCCC2 (stereo not drawn)	21.7 µM [falling, partial curve, poor fit]
Clc1cccc(-c2noc3ncnc(NC4CCCCC4)c23)c1	8.62 µM [falling, partial curve]
COc1ccc(C)cc1NC(=O)Cn1c(=O)cc(C)c2c(C)nn(C)c21	15.3 µM [falling, partial curve]
Cc1ccc(C(=O)c2oc3ccccc3c2NC(=O)c2nc(S(C)(=O)=O)ncc2Cl)cc1F	15.3 µM [falling, partial curve]
CCOc1ccc(NC(=O)c2cc3sc(Cl)cc3n2CC)cc1	21.7 µM [falling, partial curve, poor fit]
Cc1ccc(CNC(=O)Cn2c(=O)n(Cc3ccccc3)c(=O)c3sc4ccccc4c32)cc1	19.3 µM [falling, partial curve]
Cc1ccc(C)c(N2CCN(C(=O)C3CCCN(S(=O)(=O)c4ccc5c(c4)oc(=O)n5C)C3)CC2)c1 (stereo not drawn)	27.3 µM [falling, single point]
COc1ccc(NC(=O)CSc2c3c(nc4ccc(Cl)cc24)CCCC3)cc1Cl	24.3 µM [falling, partial curve]
CCN1CCOC(=O)C1CC(=O)Nc1cccc(OC)c1 (stereo not drawn)	43.2 µM [falling, partial curve]
Cc1ccc(NC(=O)CSc2ncc3c(n2)-c2ccccc2N(C)S3(=O)=O)c(Cl)c1	15.3 µM [falling, partial curve]
O=C(c1ccc(CS(=O)c2ccccc2Cl)o1)N1CCN(c2cccc(C(F)(F)F)c2)CC1 (stereo not drawn)	7.69 µM [falling, partial curve]
Cc1cc(C)c(NC(=O)Cn2c(=O)oc3cc(S(=O)(=O)N4CCCCCC4)ccc32)c(C)c1	30.6 µM [falling, partial curve, poor fit]
CCCCOc1ccc(C(C)NC(=O)c2cccc(Nc3nc4ccccc4n4nnnc34)c2)cc1 (stereo not drawn)	10.9 µM [falling, full curve]
COCCCNC(=O)c1ccc(-n2c(-c3ccccc3)cc3c2CCC(C)C3)cc1 (stereo not drawn)	0.544 µM [falling, full curve]
CCCn1c(=N)c(C(=O)NC(C)c2ccccc2)cc2c(=O)n3ccccc3nc21 (stereo not drawn)	3.85 µM [falling, full curve]
COc1cc2ccccc2cc1C(=O)Nc1ccc2oc(-c3cccc(Cl)c3Cl)nc2c1	12.2 µM [falling, full curve]
Cn1cc(CN(C(=O)Nc2ccccc2)C2CCCCC2)c2ccccc21	13.7 µM [falling, partial curve, poor fit]
O=C(CCS(=O)(=O)c1nc(-c2cccs2)cc(C(F)(F)F)n1)Nc1ccc(F)c(Cl)c1	12.2 µM [falling, full curve]
COc1ccc(-c2onc(C)c2C)cc1S(=O)(=O)NCC1CCN(Cc2cccc(F)c2)CC1	27.3 µM [falling, partial curve]
COC(=O)c1ccccc1NC(=O)CSc1c2c(nc3ccc(Cl)cc13)CCCC2	24.3 µM [falling, partial curve]
CCc1ccccc1NC(=O)Cn1nnc(C(=O)NCc2cccs2)c1N	9.68 µM [falling, partial curve]
Cc1ccc(NC(=O)CSc2nc3ccccc3nc2Cc2ccccc2)c(C)c1	24.3 µM [falling, single point]
CCOc1ccc(C(=O)Nc2ccc3nc(SCc4ccccc4)sc3c2)cc1	17.2 µM [falling, partial curve]
COc1ccc(Nc2ncc(C(=O)N3CCN(c4cccc(Cl)c4)CC3)c3ccccc23)cc1	15.3 µM [falling, partial curve]
Cc1ccc(C)c(Nc2nn3c(=O)c4ccc(C(=O)NCCc5ccccc5)cc4nc3s2)c1	12.2 µM [falling, full curve]
